Experimental data: PubChem BioAssay AID686971 (National Center for Advancing Translational Sciences (NCATS), 2013)
Hit rate of the full screen: of about 360,000 compounds, about 7,500 (2.1%) were called active. This list was built around the results that the source calls inconclusive (neither active nor inactive); the mix of calls is not that of the screen. Calls follow the shape of the dose curve; as a rule, active = well fitted cell-killing curve with a large enough effect; inconclusive = small, poorly fitted or top-dose-only effect, or effect the other way, or another doubt; inactive = no such curve, though single readings can be large or run the other way. Potencies of inconclusive entries are left out as doubtful fits.

experiment: qHTS for induction of synthetic lethality in tumor cells producing 2HG: qHTS for the HT-1080-IDH1KD cell line; conditions: HT-1080 IDH1 knockdown viability, ATP luminescence, 48 h; activity, negative = toxicity: at 46.1 µM (top of the series) unless noted;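 as to activity, negative = toxicity: 0% = DMSO wells and -100% = cell-free medium wells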
Outline: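 Assay cells: HT-1080 with IDH1 knockdown, 750 per well, RPMI/5% FBS. Exposure: 48 h at 37 °C following 2 h pre-incubation. Read: CellTiter-Glo luminescence; fitted concentration-response, curve class assigned.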
Potency is read from the fitted curve at half-maximal effect; tags tell the direction and shape of the fitted curve.

Row | SMILES | Potency | activity, negative = toxicity
1 | CC(C)c1ccc(/C=N/NC(=O)c2ccc(-n3cnnn3)cc2)cc1 | inconclusive [cytotoxic, partial curve] | –
2 | OC(CNc1ccccc1)Cn1ccc2ccccc21 (centres undefined) | inconclusive [cytotoxic, single point] | –
3 | Cc1nnc(N/N=C\c2ccc(-c3cccc(C(=O)O)c3)o2)n1N | inconclusive [cytotoxic, single point] | –
4 | COc1ccc(OC)c(S(=O)(=O)Nc2ccc3c(c2)N(C(C)=O)CCC3)c1 | – | inactive: 0.0356%
5 | COc1cc(OC)c2c(-c3cccc(-c4ccc(OC)c(OC)c4)c3)cc(=O)oc2c1 | inconclusive [cytotoxic, full curve] | –
6 | C=CCc1c(C)nc2ccc(C(=O)OCC)cc2c1Cl | – | inactive: -16.9%
7 | COc1ccc(C2CC=C(C(C)=O)CN2S(=O)(=O)c2ccc(Cl)cc2)cc1 (centres undefined) | inconclusive [cytotoxic, single point] | –
8 | CN(CCc1ccccc1)C(=O)CC1C(=O)NCCN1Cc1ccccn1 (centres undefined) | – | inactive: 7.94%
9 | O=S(=O)(Nc1ccc2oc(-c3ccccc3)nc2c1)c1ccccc1 | inconclusive [cytotoxic, single point] | –
10 | COc1ccc(C2CC(=O)c3sc(NC(C)=O)nc3C2)cc1 (centres undefined) | – | inactive: 2.11%
11 | CSc1nc(C)cc(SCC(=O)N/N=C/c2ccccc2)n1 | – | inactive: -0.607%
12 | O=C(C1CC1)N1CCc2cc(S(=O)(=O)N3CCOCC3)ccc21 | – | inactive: -5.65%
13 | COc1ccc(-n2nc3c(N4CCC(C(=O)NCc5cccc(C)c5)CC4)nnc(C)c3c2C)cc1 | inconclusive [cytotoxic, partial curve, poor fit] | –
14 | COc1cc2ccccc2cc1C(=O)Nc1cc(C)ccn1 | – | inactive: -17.1%
15 | CCn1c(/C=N/c2nc3ccccc3n2C)nc2ccccc21 | inconclusive [cytotoxic, single point] | –
16 | Nc1nnc(SCC(=O)OCc2ccccc2)s1 | – | inactive: 14.9%
17 | O=C(NCc1ccccc1)C(c1c(F)cccc1Cl)N(C(=O)c1csnn1)C1CC1 (centres undefined) | – | inactive: 25.5%
18 | Cc1cc2c(cc1C)N(C(=O)CCl)CC(=O)N2 | active: 23.1 µM | –
19 | c1ccc2c(-c3cncc4ccccc34)cncc2c1 | inconclusive [cytotoxic, partial curve] | –
20 | COc1ccccc1/C=C/C(=O)N1CCc2cc(OC)c(OC)cc2C1C (centres undefined) | inconclusive [cytotoxic, partial curve] | –
21 | Nc1nc2ccc(Cl)cc2cc1C(=O)NCCCN1CCOCC1 | – | inactive: 5.68%
22 | O=C(c1cccs1)c1coc2ccc(O)cc12 | – | inconclusive: 33.3%
23 | CCOc1ccc(N=Nc2ccc(O)c3ncccc23)cc1 | inconclusive [cytotoxic, full curve] | –
24 | COc1cc(-c2cc(NC(C)=O)c3ncc(-c4cc(OC)c(OC)c(OC)c4)n3c2)cc(OC)c1OC | active: 13 µM | –
25 | C/C(=N/Nc1nc(C)cc(-c2ccccc2)n1)c1ccco1 | inconclusive [cytotoxic, single point] | –

Row | SMILES | Potency | activity, negative = toxicity
26 | COc1ccc(C(=O)NC2CCCCCC2)cc1S(=O)(=O)Nc1ccc(Br)cc1 | inconclusive [cytotoxic, partial curve] | –
27 | CC(=O)Nc1ccc(NC(=O)CN(c2cccc([N+](=O)[O-])c2)S(C)(=O)=O)cc1 | inconclusive [cytotoxic, single point] | –
28 | O=C(CSc1cc(Cl)ccc1Cl)NCCCn1ccnc1 | inconclusive [cytotoxic, full curve] | –
29 | NC(=O)c1[nH]cnc1N | inactive | –
30 | CCCC1(c2ccsc2)NC(=O)NC1=O (centres undefined) | – | inactive: -0.0499%
31 | CCc1ccc(NC(=O)CC2C(=O)N(c3cccc(OC)c3)C(=O)N2CCOC)cc1 (centres undefined) | – | inactive: -0.344%
32 | N#C/C(=C\N1CCN(Cc2ccc3c(c2)OCO3)CC1)c1nc2ccccc2s1 | inconclusive [cytotoxic, single point] | –
33 | O=C1/C(=C/c2cccnc2)SC(=S)N1C1CCS(=O)(=O)C1 (centres undefined) | active: 18.4 µM | –
34 | CCOC(=O)c1oc2ccccc2c1NC(=O)Cc1cccs1 | inconclusive [cytotoxic, single point] | –
35 | O=C1C(Cl)=C(NCCN2CCCCC2)C(=O)c2ccccc21 | active: 23.1 µM | –
36 | COC(=O)CNC(c1ccccc1)c1cc(Br)ccc1NC(=O)CCN1CCOCC1 (centres undefined) | inconclusive [cytotoxic, single point] | –
37 | CC[C@]12CCCN3CCc4c(n(c5ccccc45)C(=O)C1)[C@@H]32 | – | inactive: 14.3%
38 | Cc1ccc(C)c(OCc2cc(C(=O)N3CCN(C4CCCCC4)CC3)no2)c1 | – | inactive: -4.39%
39 | COc1ccc(CN2CCCC(C(=O)Nc3cccc(-n4cnnn4)c3)C2)c(C)c1C (centres undefined) | – | inactive: -14.7%
40 | CCOC(=O)C1CCN(C(=O)Cn2cc(C(=O)C3CC3)c3ccccc32)CC1 | – | inconclusive: 1.43%
41 | Cc1cc(NCCN2CCOCC2)n2nc(C)c(-c3ccccc3)c2n1 | – | inactive: -3.95% [at 9.24 µM]
42 | OCCOCCNc1ncnc2sc(-c3ccccc3)cc12 | – | inactive: -9.44%
43 | CN(CC(=O)Nc1nc2ccc(F)cc2s1)S(=O)(=O)c1ccc(Cl)cc1 | inconclusive [cytotoxic, single point] | –
44 | CCOC(=O)C1CN(Cc2ccccc2)C(=O)C1=O (centres undefined) | inconclusive [rising, partial curve, poor fit] | –
45 | CC1CCN(CC2C(=O)O[C@@H]3C[C@@]4(C)CCC[C@H](C)C4=C[C@H]23)CC(C)(C)C1 (some centres undefined) | – | inactive: -4.07%
46 | CCOc1cccc(C(=O)NC(=S)Nc2ccc(N3CCN(CC)CC3)cc2)c1 | inconclusive [cytotoxic, single point] | –
47 | O=C(NCCn1cc(SCc2ccc(F)cc2)c2ccccc21)c1ccccc1F | inconclusive [cytotoxic, single point] | –
48 | CC#CCOC(=O)c1c(C)nc2sc3c(c2c1N)CCC(O)C3 (centres undefined) | inconclusive [cytotoxic, partial curve, poor fit] | –
49 | CCN(CC)CCNC(=O)c1ccc2c(c1NCCO)C(=O)c1ccccc1C2=O | inconclusive [cytotoxic, full curve] | –
50 | Cc1ccc(S(=O)(=O)CCC(=O)NCc2ccco2)cc1 | – | inactive: -2.13%

Row | SMILES | Potency | activity, negative = toxicity
51 | CC(C)N1CCCC(C)(C(=O)Nc2ccccc2)C1 (centres undefined) | inconclusive [rising, single point] | –
52 | Cn1c(=O)[nH]c(=O)c2c1nc(N1CCCCC1)n2CCCSc1nnnn1-c1ccccc1 | – | inactive: -2.71%
53 | CC(C)CC(=O)NC(NC(=S)Nc1ccccc1)C(Cl)(Cl)Cl (centres undefined) | inconclusive [cytotoxic, partial curve] | –
54 | O=C(CP(=O)(c1ccccc1)c1ccccc1)Nc1cccc(CP(=O)(c2ccccc2)c2ccccc2)c1 | inconclusive [cytotoxic, partial curve, poor fit] | –
55 | COC(CNS(=O)(=O)c1cc2c3c(c1)CCN3C(=O)CC2)OC | – | inactive: 25.1%
56 | O=C(Nc1ccncc1)c1ccc2ccccc2c1 | – | inactive: -7.18%
57 | O=C(CN1CCOCC1)Nc1ncc(Cc2cccc(Cl)c2Cl)s1 | – | inactive: -9.08%
58 | OCCN1CCN(c2cc(C(F)(F)F)nc3c(F)cccc23)CC1 | – | inactive: -1.6%
59 | O=C(CSc1cccc2cccnc12)Nc1cc(C(=O)O)cc(C(=O)O)c1 | inconclusive [cytotoxic, single point] | –
60 | CC12CCC(C(=O)NNc3ccccc3)(OC1=O)C2(C)C (centres undefined) | inconclusive [cytotoxic, partial curve] | –
61 | C[C@H](CO)N1C[C@H](C)[C@@H](CN(C)Cc2ccncc2)Oc2c(NC(=O)Cc3ccccc3)cccc2C1=O | active: 14.6 µM | –
62 | Cc1cccc(Oc2c([N+](=O)[O-])c(=O)n(C)c3ccccc23)c1 | inconclusive [cytotoxic, single point] | –
63 | CCc1nc2ccc(C(=O)N3CCN(c4ccccc4)CC3)cn2c1N(C)CCCc1ccccc1 | inconclusive [cytotoxic, single point] | –
64 | Cc1ccccc1CSCCNC(=S)Nc1ccccc1 | inconclusive [cytotoxic, single point] | –
65 | CCc1nc2ccc(C(=O)Nc3cc(-c4ccccc4)ccc3OC)cn2c1N(C=O)CCC(C)C | inconclusive [cytotoxic, single point] | –
66 | NC(c1csc(NC(=O)Nc2cccc(Cl)c2)n1)c1ccccc1Cl (centres undefined) | inconclusive [cytotoxic, single point] | –
67 | Cc1ccc([C@H]2C[C@H](O)[C@@H](n3cc(COC(=O)c4ccccc4)nn3)CN2Cc2cccs2)cc1 | inconclusive [cytotoxic, single point] | –
68 | CC(C)NC(=O)N(C)C[C@H]1Oc2c(NC(=O)c3ccc(-c4nccs4)cc3)cccc2C(=O)N([C@@H](C)CO)C[C@H]1C | – | inactive: 6.49%
69 | Cc1ccc(NS(=O)(=O)c2ccc3c(c2)NC(=O)CCS3)c(Br)c1 | – | inactive: -26.2%
70 | CCOC(=O)C1(CC2CCCCO2)CCN(Cc2cc3ccccc3[nH]2)CC1 (centres undefined) | inconclusive [cytotoxic, single point] | –
71 | CC(=O)N1c2ccc(S(=O)(=O)N3CCC(C(=O)N4CC(C)CC(C)C4)CC3)cc2CC1C (centres undefined) | – | inactive: -6.87%
72 | COc1ccccc1NS(=O)(=O)c1cc(C(=O)NCC(c2ccc(F)cc2)N2CCOCC2)ccc1C (centres undefined) | – | inactive: -4.56%
73 | Clc1cccc(Cc2c(-c3ccco3)nc3c4ccccc4ccn23)c1 | inconclusive [cytotoxic, single point] | –
74 | CCC(C(=O)NCCC(C)C)n1ccc2cc(S(=O)(=O)N3CCCCC3)ccc21 (centres undefined) | inconclusive [cytotoxic, partial curve] | –
